# Experimental data published in publication PMC4336329 (PLoS ONE, 2015).
# Out of some 310,000 compounds screened, about 14,000 (4.5%) showed an effect of 50% or more. The effect is printed as a negative number. The list shows a part of the results.
# Biological target: human ether-à-go-go-related gene (hERG) potassium channel (human, UniProt Q12809)
# Experiment: primary screen, population patch clamp on CHO cells stably expressing hERG
# 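Also: peak tail current of the secondary pulse compared with the same well before compound.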
# Chain of human ether-à-go-go-related gene (hERG) potassium channel (Q12809 whole entry, looked up): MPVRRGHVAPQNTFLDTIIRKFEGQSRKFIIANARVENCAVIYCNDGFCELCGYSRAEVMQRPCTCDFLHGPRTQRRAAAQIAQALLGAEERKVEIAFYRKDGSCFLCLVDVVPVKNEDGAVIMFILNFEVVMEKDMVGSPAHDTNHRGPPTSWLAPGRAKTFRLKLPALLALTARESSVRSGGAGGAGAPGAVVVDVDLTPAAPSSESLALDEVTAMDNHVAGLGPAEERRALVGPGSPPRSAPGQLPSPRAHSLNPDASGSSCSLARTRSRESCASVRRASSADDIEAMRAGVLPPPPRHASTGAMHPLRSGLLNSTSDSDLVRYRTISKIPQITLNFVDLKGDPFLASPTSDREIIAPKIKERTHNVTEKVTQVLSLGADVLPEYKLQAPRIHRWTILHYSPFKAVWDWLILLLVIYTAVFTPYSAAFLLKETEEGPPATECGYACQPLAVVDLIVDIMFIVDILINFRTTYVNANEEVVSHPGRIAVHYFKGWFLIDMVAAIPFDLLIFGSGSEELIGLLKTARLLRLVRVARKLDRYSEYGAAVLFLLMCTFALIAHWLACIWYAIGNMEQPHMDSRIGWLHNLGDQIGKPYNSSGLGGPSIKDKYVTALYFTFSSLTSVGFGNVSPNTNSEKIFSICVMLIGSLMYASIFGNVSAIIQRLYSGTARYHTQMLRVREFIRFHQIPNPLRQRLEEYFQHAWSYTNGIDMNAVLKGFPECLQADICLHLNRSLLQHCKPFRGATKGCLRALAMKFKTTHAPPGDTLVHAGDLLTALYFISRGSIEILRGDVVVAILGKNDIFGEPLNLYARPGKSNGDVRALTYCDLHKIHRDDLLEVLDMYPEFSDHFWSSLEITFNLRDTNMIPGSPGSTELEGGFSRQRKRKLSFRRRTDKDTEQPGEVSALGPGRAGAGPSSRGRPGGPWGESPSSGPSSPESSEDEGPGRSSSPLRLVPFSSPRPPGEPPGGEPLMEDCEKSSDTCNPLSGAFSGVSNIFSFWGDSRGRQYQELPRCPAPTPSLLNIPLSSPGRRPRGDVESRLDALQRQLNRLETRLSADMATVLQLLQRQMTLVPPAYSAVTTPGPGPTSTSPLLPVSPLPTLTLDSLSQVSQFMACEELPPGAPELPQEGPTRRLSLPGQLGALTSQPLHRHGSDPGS
row,SMILES,"hERG current change (%, negative = inhibition) at 10uM [%]"
1,C=CCN(c1ccccc1)S(=O)(=O)c1cccc(C(=O)Nc2ncccc2C)c1,-21.1
2,O=C(c1ccco1)N1CCN(c2ccc(S(=O)(=O)N3CCCC3)cc2)CC1,-30.8
3,Cc1cc(C)nc(N2CCCC(C(=O)NCc3ccc4c(c3)OCO4)C2)n1 (centres unmarked),20.9
4,CCOc1ccc(Nc2nnc(SCc3nc4ccccc4c(=O)[nH]3)s2)cc1,-8.9
5,Cc1ccc(S(=O)(=O)CC(=O)Nc2c(C)n(C)n(-c3ccccc3)c2=O)cc1,11.7
6,NC(=S)N=Nc1c(O)n(C2OC(=O)c3ccccc32)c2ccccc12 (centres unmarked),6.78
7,O=C(O)CCc1ccccc1OC(=O)c1ccccc1,10
8,CCN(Cc1nc(-c2cccc(C)c2)no1)C(=O)c1ccco1,-17.3
9,Cc1nc(-c2cccc(NS(C)(=O)=O)c2)cs1,-13.2
10,Cc1ccc(NC(=O)N2CCN(Cc3ccc4c(c3)OCO4)CC2)cc1,-33.8
11,COc1ccc(-c2cc(C(=O)c3c(N)n(C)c(=O)n(C)c3=O)c3ccccc3n2)cc1,-15.5
12,Cc1nc(C)c(Oc2cccc(C(F)(F)F)c2)c(=O)[nH]1,3.35
13,Cc1csc(NC(=O)CCCc2cccs2)n1,-21.5
14,COc1cccc(CN2C(=O)CCC2(C)C(=O)NC2CCCCC2)c1 (centres unmarked),12.9
15,CC(C)=C(NC(=O)c1ccccc1)C(=O)Nc1ccc(C(=O)O)cc1,-0.701
16,CSc1ccc(/C=C(/NC(=O)c2ccccc2)C(=O)NCCN2CCOCC2)cc1,-44.8
17,O=C(NC(Cc1c[nH]c2ccccc12)c1nnc2n1CCCCC2)c1cccs1 (centres unmarked),-6.65
18,CCc1ccc(N2CC(C(=O)N3CCCC3)CC2=O)cc1 (centres unmarked),-14.6
19,Cc1cccc(COCC(CC(C)C)N2CCN(C(=O)c3ccc(C(F)(F)F)cc3)CCC2=O)c1 (centres unmarked),-29.1
20,CCCC(=O)C1=C(O)C(C(=O)OC)C(C)(C)CC1=Nc1ccc(C)cc1 (centres unmarked),-18.5
21,CCC(SC1=Nc2ccccc2C2=NC(CC(C)C)C(=O)N12)C(=O)Nc1ccc2c(c1)OCO2 (centres unmarked),-39
22,O=CN1N=C(c2ccccc2)CC1c1ccccc1[N+](=O)[O-] (centres unmarked),4.39

row,SMILES,"hERG current change (%, negative = inhibition) at 10uM [%]"
1,COc1ccc(NC(=O)CN(C)CC(=O)Nc2ccccc2SC)cc1Cl,-14.6
2,O=C(NCc1ccccc1)c1noc2c1CCCC2,-0.175
3,CC(=O)N1c2ccccc2C(CBr)=CC1(C)C,8.96
4,COc1ccc(-n2c(SCC(N)=O)nnc2-c2ccccc2F)cc1,2.56
5,C(=C\c1ccccc1)/C=N/Nc1nc(N2CCCCC2)nc(N2CCCCC2)n1,5.31
6,COc1ccc(-c2cc(C(=O)OCC(=O)c3ccc(C)c([N+](=O)[O-])c3)c3ccccc3n2)cc1,5.61
7,c1ccc2c(c1)Oc1cccc3cccc-2c13,20.1
8,Cc1c(C(=O)N2CCN(CCc3ccccn3)CC2)oc2ccc(Cl)cc12,-81.1
9,CC(C)(C)C(=O)/C=c1\[nH]c(=O)/c(=C\c2ccc(F)cc2)s1,-4.36
10,Cc1nn(-c2cc(N3CCOCC3)ccc2[N+](=O)[O-])c(=O)c2ccccc12,-4.66
11,Cc1csc(NC(=O)c2sccc2C)n1,12.7
12,COc1cc(/C=N/NC(=O)CCn2c3ccccc3c3ccccc32)ccc1O,-2.82
13,CCN(CC)C(=O)CSc1nc2sc(C)c(C)c2c(=O)[nH]1,-7.52
14,Nc1ccccc1C(=O)NNc1c2ccccc2nc2ccccc12,13.5
15,O=C(/C=C/Nc1ccc(Br)cc1F)c1ccco1,27.6
16,COc1ccc(NC(=O)COC(=O)c2c(F)cccc2Cl)cc1OC,-12.7
17,CCOC(=O)c1ccc2c(c1)C1C=CCC1C(C(=O)O)N2 (centres unmarked),15.6
18,CCN(C(=O)Cn1cc(C(C)=O)c2ccccc21)c1ccccc1,23.2
19,O=C(CSc1ccccc1[N+](=O)[O-])NC1CCS(=O)(=O)C1 (centres unmarked),31.9
20,COCCNC(=S)N1CCc2cc(OC)c(OC)cc2C1c1cccs1 (centres unmarked),-13.9
21,O=C(NCc1ccccn1)c1cc2n(n1)C(C(F)(F)F)CC(c1ccco1)N2 (centres unmarked),9.76
22,O/N=C/c1cn(-c2ccccc2)nc1-c1cccnc1,-31.6
